In the supplement of paper PMC10126150:
Values marked as one replicate rest on one cluster of the flow cell; about a third of the high ones do not repeat.

System: ATP
Test: switch fluorescence ratio, 500 uM ATP over buffer (Cy3 cluster intensity, sum of 5 cycles each) (fold (ratio)); higher = stronger signal-on switching upon ATP binding; sequences stand for … in TCGTCGGCAGCGTCAGATGTGTATAAGAGACAGTTTTTTTTTTTTTTTTTTTTTTTTT…TC
Details: aptamer strand: ATP DNA aptamer (quencher-CACCTGGGGGAGTATTGCGGAGGAAGG + anchor), 100 nM annealed; ATP concentration: 500 uM; one replicate
In short: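 The fluorescence ratio divides summed target-cycle Cy3 intensity by summed buffer-cycle Cy3 intensity for each cluster and is averaged per switch-domain sequence. Cy3-labelled switching-strand clusters on a modified Illumina MiSeq flow-cell were annealed to 100 nM quencher-labelled ATP aptamer, then imaged in selection buffer and again after 15 min with 500 uM ATP at 22 °C. Five such cycles were run, with NaOH stripping and re-annealing between them, and clusters outside 100-1000 RFU were excluded.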
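Note: ATP exposure 15 min at 22 °C before imaging.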

Sequence | switch fluorescence ratio
TGTCCTTAAT | 1.01
TTCAACACGA | 1.02
GTTGAACGG | 0.963
GTCTTTTTTC | 0.959
ATTTATGTT | 0.97
TAATTCCAAT | 0.983
ATGCTATCCA | 0.981
GCCCTCCGTA | 1.95
AGTCCTGTCA | 1
AACGAGGCTT | 1.03
GGAGTTTAGG | 1.01
GAGTCATGCT | 1.02
TTGGAGGATC | 1.05
CATGAGTGGG | 0.967
AACACTTGGG | 1.01
TCTAAAATTC | 1.05
TCTGCGAGA | 1.74
CAACTAGCCT | 1.1
GTCTGGTATG | 0.963
ATCCGATCT | 0.994
TAGGTGTTGA | 1.18
TCTGGACGGA | 0.99
TCATTAGCTG | 1.01
TAGCAAGGGA | 1
CCCTTTTCCC | 1.04
ATGCCGCTGA | 1.01

Sequence | switch fluorescence ratio
GTTGCTCGTA | 0.836
GCCTTGGCAT | 1.01
TTAAAGTCAG | 0.996
ATATTGAATG | 0.995
TGAGCACATT | 1.25
GACACCGATC | 1.26
CGGCAAATTG | 1.01
CGCTCTACTA | 1.36
GTGTCATGGG | 0.984
GAGAGGCTTA | 0.958
CCATTTATAT | 1
AATGCGATGG | 1.15
AACTAGTGAC | 1.04
GTATCATGAG | 0.994
CATTTTCACC | 1.02
AATACCGATA | 1.02
ACATTTATGC | 0.953
ATAAAGGAGT | 0.961
GACATGGGGG | 0.987
CCAGACCACG | 1.06
GCGATCCGGC | 1.07
GAAGATGGGA | 0.988
GACGCGAAGA | 1.31
ATAGGCTTTT | 0.974
TTCTCGCTGA | 1.39
GCGGGCCTAG | 1.02

Sequence | switch fluorescence ratio
TGTGGTGCCG | 1.01
CATGATCAAA | 0.979
TTGGGCATGC | 0.96
ATCTATATGG | 0.938
GCAGACGAGA | 1.05
TTTTGAACTC | 0.971
TAGTATAGGG | 1.04
GCGCCGCCTG | 1.06
ATAACGCGTC | 1.04
TAGTCGATAC | 3.21
ATTATCTAGA | 0.998
CGGGGGTAGC | 0.978
AAACTTGATC | 1.07
TTAATTAGGG | 0.969
GTAGGAGACT | 0.958
GATTGAGAGG | 0.963
CCCCACACGC | 2.12
GCTTTCATAC | 1.25
CTCATGCTGC | 1.43
GGTCAAGGT | 0.989
GATGTAGAA | 0.963
GGATTCATCG | 0.966
GGAGTTCGCT | 0.97
GACAGGAGAG | 0.988
CCGGAGAAAT | 2.99
CGATCCGCTT | 2.4

Sequence | switch fluorescence ratio
GTCATCCCCT | 1.04
AAGGAGCGAA | 1.02
AGTGATCCCG | 1.02
TGCTTCAAAT | 1.03
CGCAGACCCG | 1.11
TAACGGCTGT | 0.935
TAGAACGCGG | 0.985
GGTGCAGGC | 0.72
TTCAGACTCG | 1.05
GCAGTTGACA | 1.03
GGGCCTTGGA | 1.04
TATCTTCCAC | 1.09
GTCAGCATTA | 1.22
TATCATGCGT | 1
TTAGGCGGAC | 1.1
CAAGTTTGGC | 1.04
GGATGGTA | 1.01
CATTGAGGAA | 1
GGGGATGGT | 1
CTTAGGTTAT | 1.02
GATACCAGAA | 1.01
TCCAATACAG | 1.11
TCATTAGGTT | 0.983
ACGAGTAATA | 1.1
GGACGTGGAC | 1.12
GTTCAAAGTC | 1.02

Sequence | switch fluorescence ratio
ACTCGAGAAT | 1.03
AGATGGGCGC | 1.05
CCAATCTTAG | 0.979
GCCGGTCTGG | 1
TGGAGTCGAT | 0.963
CCTTGTTAAT | 1.05
AAGTCGTAGA | 0.98
AGATGAGGGG | 1.02
TCAATCGTTT | 1.02
TGCGCTGAGA | 1.04
AGGCGATTTT | 1.05
GTGAGGGGCA | 1.02
TTTAGGTCTC | 0.993
GCTAGAAGTG | 1.01
CGGGTAATCA | 0.998
TCATGAGACG | 1.04
TGTAGGAATG | 0.991
ATAAACCACC | 1.28
ATCGGTCTGA | 1.01
AACATCTTAA | 0.996
GTTCGACTGC | 1.07
TACTTACAG | 1.17
TTAGAATG | 1.03
TTGGGGTGC | 0.997
GATCATTAAG | 0.966
CTGGGCAA | 1.09

Sequence | switch fluorescence ratio
TTCTCCATCC | 1.12
CAGTAAAGCG | 0.966
TTATCATCGA | 1.01
GTAAGTGCGC | 0.994
AAACCGTAGA | 1.08
CTTCTTTACT | 0.997
AAGGGGTGAT | 1.01
CTACGTATGT | 1.08
GTGTGCTCTG | 1
ACATTAGCCT | 1.06
GCCGGGATAC | 4.08
CGTGCGTCCG | 0.894
GTTTGCAGAA | 1.02
TTGAATGAGA | 1.02
TGGAAGGAGG | 0.976
TACTAGCATG | 0.973
CCCAACAGGG | 1.25
ATTTGTCGGT | 1.05
TTTGCTCTGT | 0.998
ACGTAGCCAG | 1.01
GTAACAAGAA | 1.01
TGTCACTATA | 1.1
CGTGGATTCT | 0.977
AAGGTGACGG | 0.99
TCTAGGGCG | 1.02
ACATTTCCCT | 1.05

Sequence | switch fluorescence ratio
AAATTTCCGG | 1.45
TTGTGACTTG | 1.06
TATCGAAGTA | 1
CAAAATGGTT | 0.983
AGGTGTCTGT | 0.983
TAGTGTCTTA | 0.997
CGTAACCATC | 1.02
GGGCTAGCGA | 0.958
CGTCCGAGCT | 1.22
TTGAAGATTA | 0.964
CGCTTAAACC | 1.38
GGGCGCAGA | 1.01
TACTTCCTGA | 1.05
CGATTCCGTC | 1.05
ACGGCAACTT | 1.22
AAGTTGCTTA | 1.01
AAGTCGAATT | 1.02
AAAAATGCTC | 0.897
GGTCGGTCGG | 1.04
TGGATCAGGT | 1.01
TGACCGAAGC | 1.81
CTATACTTAG | 0.977
AAAAGGTAAT | 0.963
ACCTTCCAT | 1.75
GTTATGGACG | 0.96
AAATGCTGAC | 1.09

Sequence | switch fluorescence ratio
GATCCTTTGG | 1.08
AGTATATATG | 1.01
TTTTGTGCAC | 0.977
CACGGTTATG | 1.08
AGAGGCAGTT | 1
CAGCACGGGG | 0.978
GCCAATGTAG | 0.99
CTTTGGACTT | 1.02
TTTCCAAGTT | 1.04
ATTACGCCTT | 1.08
AACTTGGTAC | 1.03
TTTTCGGGTC | 0.973
ATGAAGCGTG | 0.983
GAAGCCAAAG | 0.996
CATTTATCGT | 1
TCTTTCGCGG | 2.17
TTAGTAAGGG | 1
GTGATTGGA | 0.995
GACCCATGAT | 0.976
